In patent publication US11542311B2, “Fusion protein, preparation method therefor and application thereof in preparing ophthalmic disease treatment, anti-inflammation and anti-tumor medicament” (JIANGSU RONGTAI BIOTECH CO., LTD., priority 2017, dated 2023):

Legend:
[1] = system: neovascularization in diabetic retinopathy rat model; assay: Diabetic retinopathy rat model (STZ); type: in vivo, Wistar rats; details: for quantity not named in table (effect on neovascularization in diabetic retinopathy rat model): 100 μg intravitreal every 5 days for 2 weeks; for number of ganglion cells in the retinal / number of visual cells / thickness of each layer of the retinal tissue: 100 μg, compared with the control group
[2] = system: human glioma U87; assay: MTT assay, proliferation of human glioma U87; type: cell-based; details: 48 h
Experimental: The MTT assay was used to detect the inhibitory effect of the integrin blocker fusion protein obtained in Example 1 on the proliferation of various tumor cells, including melanoma cell B16F10, gastric cancer cell MGC-803, lung cancer cell A549, liver cancer cell Hep-G2, breast cancer cell MDA-MB-231, colon cancer cell HCT-116, human glioma U87, and cervical cancer cell Hela.
The tumor cells were cultured in a 5% CO2 incubator at 37° C. to a density of 90% or more, and collected by trypsinization. The cells were resuspended in the culture liquid and counted under a microscope. The cell concentration was adjusted to 3.0×10^4 cells/mL. The cell suspension was inoculated into a 96-well plate, 100 μL per well, and cultured overnight in a 5% CO2 incubator at 37° C. The fusion proteins I, II, and the positive drug Taxol were diluted with the culture liquid to respective predetermined concentrations. After the cells were fully adhered, each dilution was added to a 96-well plate, 100 μL per well, respectively. The integrin blocker fusion proteins I and II were added as an administration group, Taxol was used as a positive control group, and the culture liquid without any drug was used as a blank control group, and incubated in an 5% CO2 incubator at 37° C. for 48 hours. 20 μL of 5 mg/mL MTT was added to each well of a 96-well plate, and incubation was continued for 4 hours. The medium was aspirated and 100 μL of DMSO per well were added to dissolve. The absorbance was measured at 570 nm with a microplate reader with a reference wavelength of 630 nm, and the proliferation inhibition (PI) was calculated. The formula is as follows: […]
where Ntest is the OD value of the test group and Ncontrol is the OD value of the blank control group.
The test was repeated 5 times independently. The results obtained from the test were calculated as mean±SD, and statistical t-test was performed. P<0.05 was considered as significant difference, and P<0.01 was considered as an extremely significant difference.

B1: Protein I: Fc fusion protein Fc-IL4DM-HM3: IgG1-Fc, IL-4 and HM-3 joined by flexible (F) linker; SEQ ID NO: 1 (protein)
chain: [gap - human IgG1 Fc]GGGGSGGGGSGGGGSHKCDITLQEIIKTLNSLTEQKTLCTELTVTDIFAASKNTTEKETFCRAATVLRQFYSHHEKDTRCLGATAQQFHRHKQLIRFLKRLDRNLWGLAGLNSCPVKEANQSTLENFLERLKTIMDEKDSKCSSGGGGSGGGGSGGGGSIVRRADRAAVPGGGGRGD
quantity not named in table (effect on neovascularization in diabetic retinopathy rat model) ([1]; Week 4): 182.03 ± 3.42
quantity not named in table (effect on neovascularization in diabetic retinopathy rat model) ([1]; Week 8): 211.04 ± 3.33
quantity not named in table (effect on neovascularization in diabetic retinopathy rat model) ([1]; Week 12): 252.36 ± 1.34
number of ganglion cells in the retinal [1]: increased
number of visual cells [1]: increased
thickness of each layer of the retinal tissue [1]: increased
A570 nm/A630 nm ([2]; 1 μg/mL): 0.7370 ± 0.0190
PI (%) ([2]; 1 μg/mL): 4.52%
A570 nm/A630 nm ([2]; 2 μg/mL): 0.6916 ± 0.0275
PI (%) ([2]; 2 μg/mL): 10.40%
A570 nm/A630 nm ([2]; 4 μg/mL): 0.6209 ± 0.0314
PI (%) ([2]; 4 μg/mL): 19.56%
A570 nm/A630 nm ([2]; 8 μg/mL): 0.5377 ± 0.0212
PI (%) ([2]; 8 μg/mL): 30.34%
A570 nm/A630 nm ([2]; 16 μg/mL): 0.4788 ± 0.0366
PI (%) ([2]; 16 μg/mL): 37.97%
A570 nm/A630 nm ([2]; 32 μg/mL): 0.3520 ± 0.0223
PI (%) ([2]; 32 μg/mL): 54.40%
A570 nm/A630 nm ([2]; 64 μg/mL): 0.2330 ± 0.0112
PI (%) ([2]; 64 μg/mL): 69.81%
A570 nm/A630 nm ([2]; 128 μg/mL): 0.1346 ± 0.0283
PI (%) ([2]; 128 μg/mL): 82.56%
A570 nm/A630 nm ([2]; 256 μg/mL): 0.0820 ± 0.0230
PI (%) ([2]; 256 μg/mL): 89.38%

B2: Protein II: Fc fusion protein Fc-IL4DM-HM3: IgG1-Fc, IL-4 and HM-3 joined by rigid (R) linker; SEQ ID NO: 2 (protein)
chain: [gap - human IgG1 Fc]AEAAAKEAAAKEAAAKEAAAKAHKCDITLQEIIKTLNSLTEQKTLCTELTVTDIFAASKNTTEKETFCRAATVLRQFYSHHEKDTRCLGATAQQFHRHKQLIRFLKRLDRNLWGLAGLNSCPVKEANQSTLENFLERLKTIMDEKDSKCSSAEAAAKEAAAKEAAAKEAAAKAIVRRADRAAVPGGGGRGD
quantity not named in table (effect on neovascularization in diabetic retinopathy rat model) ([1]; Week 4): 188.26 ± 2.23
quantity not named in table (effect on neovascularization in diabetic retinopathy rat model) ([1]; Week 8): 212.33 ± 4.59
quantity not named in table (effect on neovascularization in diabetic retinopathy rat model) ([1]; Week 12): 257.92 ± 3.88
number of ganglion cells in the retinal [1]: increased
number of visual cells [1]: increased
thickness of each layer of the retinal tissue [1]: increased
